Source: ChEMBL document CHEMBL1201862, “PubChem BioAssay data set” (2004)

test system: NCI-H322M; assay: inhibition of tumour cell growth, NCI panel, 48 h

| Compound | GI50 |
| --- | --- |
| NC(CCC(=O)NC(CSC(=O)N(O)c1ccccc1)C(=O)NCC(=O)O)C(=O)O (centres undefined) | inactive: > 1000 µM |
| C=CCSC(C)=O | inactive: > 100 µM |
| COc1ccc(/C=C/C(=N/NC(=O)N/N=C(/C=C/c2ccc(OC)cc2)C(C)(C)CN2CCCCC2)C(C)(C)CN2CCCCC2)cc1 | inactive: 2.33 µM |
| CC(C)/C(Cl)=N/OC(=O)Nc1ccc(Br)cc1 | inactive: 14.8 µM |
| CCOC(=O)c1ccc(-n2c(SCC)nc3sc(C)c(C)c3c2=O)cc1 | inactive: > 100 µM |
| CC(=O)OCc1cncn1S(=O)(=O)c1ccc(C)cc1 | inactive: > 100 µM |
| C[C@H](NC(=O)n1c2ccccc2c2ccccc21)C(=O)O | inactive: > 100 µM |
| CCCCCCOc1ccc(NC2=C(Cl)C(=O)c3cccnc3C2=O)cc1 | inactive: 1.65 µM |
| Cc1ccc2c(c1)NC(c1ccc(C(=O)O)cc1)c1cccn1-2 (centres undefined) | inactive: 23.6 µM |
| NC(CCc1nc(-c2cccc([N+](=O)[O-])c2)cs1)C(=O)O (centres undefined) | inactive: > 100 µM |
| CC(C)C/C(CC(=O)CCC(=O)Nc1ccccc1[N+](=O)[O-])=N\NC(=O)c1cc2ccccc2cc1O | inactive: 44.9 µM |
| CCCC[Si](CCCC)(CCCC)O[C@@H](/C=C/C(=O)OCC)[C@H](Cc1ccccc1)O[Si](CCCC)(CCCC)CCCC | inactive: > 100 µM |
| O=c1n(N=[S+]([O-])(c2ccccc2)c2ccccc2)c(=O)n2n1C1C=CC2CC1 | inactive: > 100 µM |
| CC1OC(OC2C(O)COC(OC3C(C)OC(OC4C(OC(=O)[C@]56CCC(C)(C)C[C@@H]5C5=CCC7[C@@]8(C)C[C@H](O)[C@H](OC9OC(CO)C(O)C(OC%10OC(CO)C(O)C(O)C%10O)C9O)[C@@](C)(CO)[C@@H]8CC[C@@]7(C)[C@]5(C)CC6)OCC(O)C4O)C(O)C3OC3OCC(O)C(O)C3O)C2O)C(O)C(O)C1O (some centres undefined) | inactive: 6.85 µM |
| C=CCN(N=O)C(=O)NCCCC(NC(C)=O)C(=O)NCc1ccccc1 (centres undefined) | inactive: > 100 µM |
| O=c1c2cc(I)ccc2nc(-c2cccs2)n1-c1ccc(O)cc1 | inactive: 10.5 µM |
| Cc1ccc(S(=O)(=O)N2CCN(CCO)CCN(S(=O)(=O)c3ccc(C)cc3)CCN(CCO)CC2)cc1 | inactive: 14.7 µM |
| Cc1cn(C2CC(O)C(CO)O2)c(=O)n2nnnc12 (centres undefined) | inactive: > 100 µM |
| CCC(C)[C@H](NC(=O)N[C@H](C)c1ccccc1)C(=O)OC (some centres undefined) | inactive: > 100 µM |
| N#CN1C2CCC1CC(=O)C2 | inactive: > 100 µM |
| COc1cc([C@@H]2c3cc4c(cc3[C@@H](OC(=O)c3cccc(N)c3)C3COC(=O)[C@@H]32)OCO4)cc(OC)c1O (some centres undefined) | inactive: 26.4 µM |
| COc1ccc(S(=O)(=O)Nc2ccc(-c3csc(N4C(=O)/C(=C/c5ccccc5)N=C4c4ccccc4)n3)cc2)cc1Cl | inactive: 71.9 µM |
| CC(O)CN1c2ccccc2Sc2ccccc21 (centres undefined) | inactive: > 100 µM |

| Compound | GI50 |
| --- | --- |
| CCC(C#N)(c1ccccc1)N(CCc1ccccc1)C(=O)c1ccccc1 (centres undefined) | inactive: 63.2 µM |
| CC(C)=NOC(=O)CNC(=O)C(Cc1ccccc1)NC(=O)C(C)NC(=O)OC(C)(C)C (centres undefined) | inactive: > 100 µM |
| O=C1CC(c2c(-c3ccccc3)[nH]c3ccccc23)C(=O)N1c1ccccc1 (centres undefined) | inactive: 88.3 µM |
| CCOC(=N)CC(=O)Nc1ccccc1CC | inactive: > 100 µM |
| CCOC(=O)c1ccc(C(=O)/C(C#N)=C2\CCCN2)[nH]1 | inactive: > 100 µM |
| Cc1ccccc1NC(=S)N/N=C(/c1ccccc1)c1ccccn1 | active: < 0.01 µM |
| COc1cc(C2c3c(ccc4ccccc34)C(=O)C3CCC(=O)N32)cc(OC)c1OC (centres undefined) | inactive: > 50 µM |
| CCn1c(-c2ccccc2)nc2c1C(=O)c1ccccc1C2=O | inactive: 31.8 µM |
| CC12CC(=O)OC(Cc3ccccc31)O2 (centres undefined) | inactive: > 100 µM |
| CC(=O)c1ccc(N2CCN(C3=C(Cl)C(=O)c4c(O)ccc(O)c4C3=O)CC2)cc1 | inactive: 13.7 µM |
| C1CCN2CC3CCCN4CCCC(C2C1)C34 (centres undefined) | inactive: > 100 µM |
| Cc1[nH]c(-c2ccccc2)c(O)c1C(=O)OC1CC(C)CCC1C(C)C (centres undefined) | inactive: 16.6 µM |
| COc1ccc2cc1Oc1ccc(cc1)CC1c3c(cc(OC)c4c3Oc3cc5c(cc3O4)CCNC5C2)CCN1C (centres undefined) | inactive: 1.89 µM |
| CC(=O)NC1CC(C(C)(C)NC(C)=O)CC=C1C (centres undefined) | inactive: > 100 µM |
| CC1Cc2c(cc(N)nc2Br)NC1=O (centres undefined) | inactive: > 100 µM |
| CC(=O)OC[C@@H](OC(C)=O)[C@@H](OC(C)=O)[C@H]1OC[C@@H]2C[C@H]([C@H]1OC(C)=O)N(Cc1ccccc1)O2 | inactive: > 100 µM |
| CC(=O)OC(C)(C)/C=C/C(=O)[C@](C)(O)[C@H]1[C@H](O)C[C@@]2(C)[C@@H]3CC=C4[C@@H](C[C@H](O)C(=O)C4(C)C)[C@]3(C)C(=O)C[C@]12C | active: 0.241 µM |
| COC(=O)c1ccc(/C=C/C2=CC(=O)C=CC2=O)cc1 | inactive: 44.2 µM |
| CCOC(=O)C(NC(=O)C(CCCCNP(=O)(OCC)OCC)NC(=O)C(C)NC(C)=O)C(C)C (centres undefined) | inactive: > 100 µM |
| CC(C)=C1CCC(CN2CCCC2)C1=O (centres undefined) | inactive: > 100 µM |
| CCC(C)(C)C(=O)O[C@H]1C[C@@H](C)C=C2C=C[C@H](C)[C@H](CC[C@@H]3C[C@@H](O)CC(=O)O3)[C@H]21 [SIMVASTATIN] | inactive: > 30 µM |
| CCN(CC)CCn1c2cc3c(cc2c(=O)c2cccnc21)OCO3 | inactive: 5.21 µM |
| O=c1cc(NCC2CCCCC2)[nH]c(=O)[nH]1 | inactive: > 100 µM |

| Compound | GI50 |
| --- | --- |
| O=C1OC(c2ccccc2)=N/C1=C/NC(CS)C(=O)O (centres undefined) | inactive: > 100 µM |
| CN(C)CC1CCCCCCCCCCCCC(CN(C)C)C1=O (centres undefined) | inactive: 15.3 µM |
| C/C(=N\Nc1nc2ccccc2[nH]1)c1cnccn1 | active: 0.689 µM |
| CN1C2CCC1/C(=C/c1cccc3c1OCO3)C(=O)/C2=C\c1cccc2c1OCO2 | inactive: > 100 µM |
| CCCC(=O)Nc1cc(/C=C/C(=O)N2CC(CCl)c3c2cc(OC(C)=O)c2[nH]cc(C)c32)n(C)c1 (centres undefined) | active: 5.01e-05 µM |
| CCOC(=O)/C=C(/C(=O)OCC)n1ccc(=O)n(/C(=C/C(=O)OCC)C(=O)OCC)c1=O | inactive: 18.7 µM |
| Cc1nc2ccc(S(=O)(=O)O)cc2c(=O)n1-c1ccc(C(=O)NN2C(=O)C(Cl)C2c2ccccc2O)cc1 (centres undefined) | inactive: > 100 µM |
| O=c1c2cc(Cl)ccc2sc2cccc(Cl)c12 | inactive: > 100 µM |
| CN(C)CC1CCCCCC(Br)C1=O (centres undefined) | inactive: 53.6 µM |
| O=C(c1ccccc1)N1CCC(Nc2cccnc2)O1 (centres undefined) | inactive: > 100 µM |
| CN(CCCNC(=O)c1c2ccc3ccccc3c2nn1C)CCCNC(=O)c1c2ccc3ccccc3c2nn1C | inactive: 12.2 µM |
| O=c1c2ccccc2nc2[nH][nH]c(=S)n12 | inactive: > 100 µM |
| CCOC(=O)C1(C(=O)OCC)C(C(C)(C)C)=C(C)c2ccccc21 | inactive: 21 µM |
| CC(C)(C)N/N=C(\C(=O)Nc1cccc(Cl)c1)C1C(=O)Nc2ccccc2[S+]1[O-] (centres undefined) | inactive: > 100 µM |
| Cc1c(-c2ccccc2)c(C#N)c2nnn(-c3cccc(Cl)c3)c(=O)n12 | inactive: 78.5 µM |
| O=C1c2ccccc2-c2c1c(-c1ccc(O)cc1O)nc1ccc3ccccc3c21 | inactive: > 100 µM |
| CCOC(=O)N1c2ccccc2N(C(=O)OCC)C1CC(=O)/C=C/c1ccccc1 | inactive: 2.69 µM |
| COc1ccc(/C=c2/sc3n(c2=O)NC2(CCC(C)CC2)NN=3)cc1 (centres undefined) | inactive: > 100 µM |
| Cc1cccc(O)c(=O)c1 | inactive: 19.2 µM |
| Clc1nc2n(c1/C=C/c1cccs1)CCS2 | inactive: 45.8 µM |
| CC(=O)OCC1OC(N=[N+]=[N-])C(OC(C)=O)C(OC(C)=O)C1OC1OC(COC(C)=O)C(OC(C)=O)C(OC(C)=O)C1OC(C)=O (centres undefined) | inactive: > 100 µM |
| CC(=O)NNc1nc(C)c(C(=O)/C=C/c2ccc(Cl)c(Cl)c2)s1 | inactive: > 100 µM |
| CCOC(=O)c1[nH]c2cccc3c2c1CC(Br)C3=O (centres undefined) | inactive: 10.1 µM |

| Compound | GI50 |
| --- | --- |
| CN1CC=C(c2c(N)nc(N)[nH]c2=O)CC1 | inactive: > 100 µM |
| O=[N+]([O-])c1cc2c(c3nonc13)OCCCCO2 | inactive: 16.4 µM |
| Cc1ccc(NC(=O)C2C3C=CC(O3)C2C(=O)O)cc1 (centres undefined) | inactive: > 100 µM |
| CCC(O)(c1ccc(OC)cc1)C(c1ccc(OCc2ccccc2)cc1)c1ccc(OCc2ccccc2)cc1 (centres undefined) | inactive: > 100 µM |
| C/C(=C/CC[C@](C)(OC1OC(CO)C(O)C(O)C1O)[C@H]1CC[C@]2(C)[C@@H]1CC[C@@H]1[C@@]3(C)CC[C@H](O)C(C)(C)[C@@H]3C[C@H](O)[C@]12C)CO (some centres undefined) | inactive: 33.3 µM |
| CN(C)c1ccc(/C=C2\N=C(c3ccccc3)N(/N=C3\C(=O)Nc4ccccc43)C2=O)cc1 | inactive: > 100 µM |
| CN1CCN(c2ccncc2S(=O)(=O)N2CCN(C)CC2)CC1 | inactive: > 100 µM |
| COc1ccc(N2C(=O)C3c4[nH]c5ccc(C)cc5c4C4CCC(C(C)C)CC4C3C2=O)cc1 (centres undefined) | inactive: > 100 µM |
| CCN(CC)c1ccc2cc(-c3nnc(-c4ccccc4)[nH]3)c(=O)oc2c1 | inactive: 30.9 µM |
| C=C1c2[nH]c3ccccc3c2C2C(CC)C1CCN2C (centres undefined) | inactive: 67 µM |
| Cc1ccc(C(=O)/C=C2\Nc3ccccc3SC2=O)c(C)c1 | inactive: > 100 µM |
| C/C=C/C(O)P1(=O)N(Cc2ccccc2)[C@@H]2CCCC[C@H]2N1Cc1ccccc1 (some centres undefined) | inactive: > 25 µM |
| Cc1ccc(S(=O)(=O)NN=C2C(C)CC(C(C)(C)C)CC2C)cc1 (centres undefined) | inactive: 18.1 µM |
| CC(=O)Oc1ccc(/C=C/C(=O)O[C@@H](C(=O)O)[C@@H](OC(=O)/C=C/c2ccc(OC(C)=O)c(OC(C)=O)c2)C(=O)O)cc1OC(C)=O | inactive: > 100 µM |
| CN(C)CCN1C(=O)N(CCN(C)C)c2c3cc(O)ccc3nc3c([N+](=O)[O-])ccc1c23 | inactive: 7.14 µM |
| COc1cccc2c1OC1(C=C2)Oc2ccccc2C(=O)N1C (centres undefined) | inactive: 41.9 µM |
| COc1ccc(/C=N/NS(=O)(=O)c2ccccc2)cc1 | inactive: > 100 µM |
| O=C(O)CCSc1nnc(COc2ccc(Cl)cc2)n1-c1ccccc1 | inactive: > 100 µM |
| CCOC(=O)c1c(-c2ccccc2)c(-c2ccccc2)cn1C | inactive: > 10 µM |
| C=C(C#N)C1OCC2OC(C)(C)OC21 (centres undefined) | inactive: 43.5 µM |

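96-well plates; 48 h exposure; 5 concentrations. Endpoints by linear interpolation between flanking doses. Not reached: highest tested concentration assigned. Here, GI50 denotes the concentration required for 50% inhibition of growth.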 Active and inactive are the calls of the source. Rule as the data show it: active = GI50 up to about 1.1 µM and inactive = higher.
